Results from PMC12820563, “FoxP3 forms a head-to-head dimer in vivo and stabilizes its multimerization on adjacent microsatellites”.
This is one part of the list.

Each sequence was assayed against T1, MBP-FoxP1dN (Mus musculus, UniProt P58462 326-579) (assay: PD-seq (MBP pull-down with sequencing); 20 mM Tris-HCl pH 7.5, 100 mM NaCl, 1.5 mM MgCl2, 0.4 uM protein, 0.1 uM dsDNA library, 30 min, room temperature, amylose pull-down; high values mean tight binding). Conditions: protein: recombinant; tags: His6-MBP; chain copies: 2; dsDNA, one strand shown.
T1 sequence: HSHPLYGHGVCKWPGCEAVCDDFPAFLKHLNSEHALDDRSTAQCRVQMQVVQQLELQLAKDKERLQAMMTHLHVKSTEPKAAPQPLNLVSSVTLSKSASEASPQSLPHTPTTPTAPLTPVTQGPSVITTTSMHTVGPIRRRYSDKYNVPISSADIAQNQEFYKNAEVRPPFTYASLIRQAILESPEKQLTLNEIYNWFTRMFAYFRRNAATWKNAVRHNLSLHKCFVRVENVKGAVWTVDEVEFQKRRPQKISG
How it was run: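 Protein and DNA were mixed at 0.4 µM and 0.1 µM and held for 30 min at room temperature in Tris pH 7.5 buffer with NaCl and MgCl2; the protein was a His6-MBP-tagged, N-terminally truncated mouse FoxP3 or FoxP1 fragment from E. coli, and the DNA a Klenow-filled double-stranded degenerate library. Amylose resin captured the complexes, which were washed three times. Binding is read as reads-per-million enrichment of pull-down versus input after Illumina sequencing, with replicates pooled.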
With “GATGATTGTTCTCCCAGCTGATGAATTATACAGTTCGAGTAAACAAATTTTCCTAATCTTTCTGTTCAAGCGCCATCTAC” the binding signal was 1.18 RPM ratio (pull-down/input).
With “GATGATTGTTCTCCCAGCTGATGAATTAACTTCTTCGAGTAAACAAATTTTCCTAATCTTTCTGTTCAAGCGCCATCTAC” the binding signal was 0.832 RPM ratio (pull-down/input).
For “GATGATTGTTCTCCCAGCTGATGAATTCGCATACTCGAGTAAACAAATTTTCCTAATCTTTCTGTTCAAGCGCCATCTAC”, the binding signal was 0.969 RPM ratio (pull-down/input).
In the case of “GATGATTGTTCTCCCAGCTGATGAATTTATCTGGTCGAGTAAACAAATTTTCCTAATCTTTCTGTTCAAGCGCCATCTAC”, the binding signal is reported as 0.931 RPM ratio (pull-down/input).
For “GATGATTGTTCTCCCAGCTGATGAATTCGCGGTATCGAGTAAACAAATTTTCCTAATCTTTCTGTTCAAGCGCCATCTAC”, the binding signal was 0.932 RPM ratio (pull-down/input).
In the case of “GATGATTGTTCTCCCAGCTGATGAATTTACCTATTCGAGTAAACAAATTTTCCTAATCTTTCTGTTCAAGCGCCATCTAC”, the binding signal is reported as 1.33 RPM ratio (pull-down/input).
“GATGATTGTTCTCCCAGCTGATGAATTCAGAGTTTCGAGTAAACAAATTTTCCTAATCTTTCTGTTCAAGCGCCATCTAC” was tested, and the binding signal was 0.913 RPM ratio (pull-down/input).
In the case of “GATGATTGTTCTCCCAGCTGATGAATTCCAGCCTTCGAGTAAACAAATTTTCCTAATCTTTCTGTTCAAGCGCCATCTAC”, the binding signal is reported as 0.842 RPM ratio (pull-down/input).
For “GATGATTGTTCTCCCAGCTGATGAATTCTACCCCTCGAGTAAACAAATTTTCCTAATCTTTCTGTTCAAGCGCCATCTAC”, the binding signal was 0.797 RPM ratio (pull-down/input).
With “GATGATTGTTCTCCCAGCTGATGAATTAGAAGCTTCGAGTAAACAAATTTTCCTAATCTTTCTGTTCAAGCGCCATCTAC” the binding signal was 0.996 RPM ratio (pull-down/input).
For “GATGATTGTTCTCCCAGCTGATGAATTCGCAGTGTCGAGTAAACAAATTTTCCTAATCTTTCTGTTCAAGCGCCATCTAC”, the binding signal was 0.866 RPM ratio (pull-down/input).
“GATGATTGTTCTCCCAGCTGATGAATTCAAAATCTCGAGTAAACAAATTTTCCTAATCTTTCTGTTCAAGCGCCATCTAC” was tested, and the binding signal was 0.867 RPM ratio (pull-down/input).
In the case of “GATGATTGTTCTCCCAGCTGATGAATTATAGGGTTCGAGTAAACAAATTTTCCTAATCTTTCTGTTCAAGCGCCATCTAC”, the binding signal is reported as 0.946 RPM ratio (pull-down/input).
“GATGATTGTTCTCCCAGCTGATGAATTTTCGCCCTCGAGTAAACAAATTTTCCTAATCTTTCTGTTCAAGCGCCATCTAC” was tested, and the binding signal was 0.825 RPM ratio (pull-down/input).
“GATGATTGTTCTCCCAGCTGATGAATTTCGAAGGTCGAGTAAACAAATTTTCCTAATCTTTCTGTTCAAGCGCCATCTAC” was tested, and the binding signal was 0.722 RPM ratio (pull-down/input).
“GATGATTGTTCTCCCAGCTGATGAATTCTTCGAGTCGAGTAAACAAATTTTCCTAATCTTTCTGTTCAAGCGCCATCTAC” was tested, and the binding signal was 0.849 RPM ratio (pull-down/input).
“GATGATTGTTCTCCCAGCTGATGAATTCGCCTATTCGAGTAAACAAATTTTCCTAATCTTTCTGTTCAAGCGCCATCTAC” was tested, and the binding signal was 0.908 RPM ratio (pull-down/input).
“GATGATTGTTCTCCCAGCTGATGAATTTCAAATTTCGAGTAAACAAATTTTCCTAATCTTTCTGTTCAAGCGCCATCTAC” was tested, and the binding signal was 0.846 RPM ratio (pull-down/input).
“GATGATTGTTCTCCCAGCTGATGAATTATCTTGTTCGAGTAAACAAATTTTCCTAATCTTTCTGTTCAAGCGCCATCTAC” was tested, and the binding signal was 1.02 RPM ratio (pull-down/input).
In the case of “GATGATTGTTCTCCCAGCTGATGAATTCCCATTTTCGAGTAAACAAATTTTCCTAATCTTTCTGTTCAAGCGCCATCTAC”, the binding signal is reported as 0.961 RPM ratio (pull-down/input).
For “GATGATTGTTCTCCCAGCTGATGAATTTTCGTATTCGAGTAAACAAATTTTCCTAATCTTTCTGTTCAAGCGCCATCTAC”, the binding signal was 1.05 RPM ratio (pull-down/input).
“GATGATTGTTCTCCCAGCTGATGAATTCCCTTACTCGAGTAAACAAATTTTCCTAATCTTTCTGTTCAAGCGCCATCTAC” was tested, and the binding signal was 0.802 RPM ratio (pull-down/input).
In the case of “GATGATTGTTCTCCCAGCTGATGAATTACATTAATCGAGTAAACAAATTTTCCTAATCTTTCTGTTCAAGCGCCATCTAC”, the binding signal is reported as 1.37 RPM ratio (pull-down/input).
For “GATGATTGTTCTCCCAGCTGATGAATTCTCCTAATCGAGTAAACAAATTTTCCTAATCTTTCTGTTCAAGCGCCATCTAC”, the binding signal was 0.872 RPM ratio (pull-down/input).
For “GATGATTGTTCTCCCAGCTGATGAATTTACCTCTTCGAGTAAACAAATTTTCCTAATCTTTCTGTTCAAGCGCCATCTAC”, the binding signal was 1.21 RPM ratio (pull-down/input).
“GATGATTGTTCTCCCAGCTGATGAATTCTACGCCTCGAGTAAACAAATTTTCCTAATCTTTCTGTTCAAGCGCCATCTAC” was tested, and the binding signal was 0.851 RPM ratio (pull-down/input).
In the case of “GATGATTGTTCTCCCAGCTGATGAATTTGAGGGATCGAGTAAACAAATTTTCCTAATCTTTCTGTTCAAGCGCCATCTAC”, the binding signal is reported as 0.822 RPM ratio (pull-down/input).
In the case of “GATGATTGTTCTCCCAGCTGATGAATTCGTCTTCTCGAGTAAACAAATTTTCCTAATCTTTCTGTTCAAGCGCCATCTAC”, the binding signal is reported as 0.86 RPM ratio (pull-down/input).
In the case of “GATGATTGTTCTCCCAGCTGATGAATTAACAGAATCGAGTAAACAAATTTTCCTAATCTTTCTGTTCAAGCGCCATCTAC”, the binding signal is reported as 1.16 RPM ratio (pull-down/input).
With “GATGATTGTTCTCCCAGCTGATGAATTATTAGAATCGAGTAAACAAATTTTCCTAATCTTTCTGTTCAAGCGCCATCTAC” the binding signal was 1.2 RPM ratio (pull-down/input).
“GATGATTGTTCTCCCAGCTGATGAATTAGTGGCATCGAGTAAACAAATTTTCCTAATCTTTCTGTTCAAGCGCCATCTAC” was tested, and the binding signal was 1.23 RPM ratio (pull-down/input).
In the case of “GATGATTGTTCTCCCAGCTGATGAATTCACCCGTTCGAGTAAACAAATTTTCCTAATCTTTCTGTTCAAGCGCCATCTAC”, the binding signal is reported as 0.895 RPM ratio (pull-down/input).
For “GATGATTGTTCTCCCAGCTGATGAATTTTTTGCCTCGAGTAAACAAATTTTCCTAATCTTTCTGTTCAAGCGCCATCTAC”, the binding signal was 0.956 RPM ratio (pull-down/input).
“GATGATTGTTCTCCCAGCTGATGAATTTCCTACATCGAGTAAACAAATTTTCCTAATCTTTCTGTTCAAGCGCCATCTAC” was tested, and the binding signal was 0.934 RPM ratio (pull-down/input).
“GATGATTGTTCTCCCAGCTGATGAATTCTCCTGGTCGAGTAAACAAATTTTCCTAATCTTTCTGTTCAAGCGCCATCTAC” was tested, and the binding signal was 0.758 RPM ratio (pull-down/input).
“GATGATTGTTCTCCCAGCTGATGAATTGCACGCGTCGAGTAAACAAATTTTCCTAATCTTTCTGTTCAAGCGCCATCTAC” was tested, and the binding signal was 1.17 RPM ratio (pull-down/input).
For “GATGATTGTTCTCCCAGCTGATGAATTTCATCTATCGAGTAAACAAATTTTCCTAATCTTTCTGTTCAAGCGCCATCTAC”, the binding signal was 0.877 RPM ratio (pull-down/input).
With “GATGATTGTTCTCCCAGCTGATGAATTTACACAGTCGAGTAAACAAATTTTCCTAATCTTTCTGTTCAAGCGCCATCTAC” the binding signal was 1.34 RPM ratio (pull-down/input).
For “GATGATTGTTCTCCCAGCTGATGAATTTAGGTGTTCGAGTAAACAAATTTTCCTAATCTTTCTGTTCAAGCGCCATCTAC”, the binding signal was 1.02 RPM ratio (pull-down/input).
With “GATGATTGTTCTCCCAGCTGATGAATTGCTCTATTCGAGTAAACAAATTTTCCTAATCTTTCTGTTCAAGCGCCATCTAC” the binding signal was 1.07 RPM ratio (pull-down/input).
